Measurements as given in the RNAGym collection of RNA variant scans (doi:10.1093/nar/gkz1192).
The source gives no read counts; variants with many changes may rest on few reads.

B1: CPEB3 Ribozyme (parent)
chain: UAACAGGGGGCCACAGCAGAAGCGUUCACGUCGCAGCCCCUGUCAGAUUCUGGUGAAUCUGCGAAUUCUGCUGUAUAUCUC

Variants of: B1
Test: self-cleavage, relative activity (ratio to wild type); higher = more cleavage; in vitro, sequencing
Outline: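 For each CPEB3 ribozyme variant, relative activity is its cleaved/total read fraction divided by the unmutated ribozyme's. Barcoded error-prone PCR libraries were transcribed by T7 RNA polymerase (5 hours, 37°C) and held in DNase I for 15 min before an EDTA stop, with cleavage occurring throughout. Template-switching reverse transcription and Illumina sequencing were used to read the RNAs. A 5-read minimum applied, and results are the mean of three batches.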

| Variant | self-cleavage |
| --- | --- |
| UAACAGGGGGCCACAGCAGAGGCGUUCACGUCGCGGCCCCUGUCGGAUUCUGGUGAAUCUGCGAAUACUGCUGUAUAUCUC [A21G A35G A45G U67A] | 0.23 |
| UAACAGGGGGCCACAGCAGAGGCGUUCACGUCGCAGGCCCUGUCAGAUCCUGGUGAAUCUGCGAAUUCUGCCGUAUUUCUC [A21G C37G U49C U72C A77U] | 0.25 |
| UAACAGGGGGCCACAGCAGAGGCGUUCACGUCGGAGCCCCUGUCAGAUUCUGGUGGAUCUGCGAAUUCUACUGUACAUCUC [A21G C34G A56G G70A U76C] | 0.17 |
| UAACAGGGGGCCACAGCAGAGGCGUUCACGUCGCAGCCCCUGUCAGAUUCUGGUGGAUCUGCGAAUUCUGCCGUAUAUCUC [A21G A56G U72C] | 0.47 |
| UAACAGGGGGCCACAGCAGAGGCGUUCACGUCGCUGCCCCUGUCAGAUUCUGGUGGAUCUGCGAAUUCCGCUGUAUAUCUC [A21G A35U A56G U69C] | 0.12 |
| UAACAGGGGGCCACAGCAGAGGCGUUUACGUCGAAGCCCCUGUCAGAUUCUGGUGAAUCUGCGAAUACUGCUGUAUAUCUC [A21G C27U C34A U67A] | 0.05 |
| UAACAGGGGGCCACAGCAGAGGCGUUCUCGUCGCAGCCCCCGUCAGAUUCUGGUGAAUCUGCGAAUUCUGCUGUAUACCUC [A21G A28U U41C U78C] | 0.37 |
| UAACAGGGGGCCACAGCAGAGGUGUCCACGUCGCAGCCCCAGUCAGAUUCUGGUGAAUCUGCGGAUUCUGCUGUAUAUCUC [A21G C23U U26C U41A A64G] | 0.1 |
| UAACAGGGGGCCACAGCAGAGGCGUUCACGUCGCUGCCCCUGUCAGAUGCUGGUGAAUCCGCGAAUUCUGCGGUAUUUCUC [A21G A35U U49G U60C U72G A77U] | 0.02 |
| UAACAGGGGGCCACAGCAGAGGCGUUCACGUCGCAGCCCCUGUCAGAUUCUGGUGAGUCUGCGGAUUCUGCUGUAUAACUC [A21G A57G A64G U78A] | 0.32 |
| UAACAGGGGGCCACAGCAGAGGCGUUCAUGUCGCAGCCCCUGUAAGAUUCUGGUGGAUCUGCGAGUUCUGCUGUAUAUCCC [A21G C29U C44A A56G A65G U80C] | 0.16 |
| UAACAGGGGGCCACAGCAGAGGCGUUCACGUCGCAGUCCCUGUCAGAUUCAGGUGAAUCUGCGAAUUCUGCUGUAUAUCUC [A21G C37U U51A] | 0.24 |
| UAACAGGGGGCCACAGCAGAGGCGUUCACGUUGCAGCCCCUGUCUGAUUCUGGUGAAUCUGCGAAUUCUGCCGUAUAUCUC [A21G C32U A45U U72C] | 0.15 |
| UAACAGGGGGCCACAGCAGAGGCGUUCACGUCGCAGUCCCUGGCAGAUUCUGGUGGAUCUGCGGAUUCUGCUGUAUGUCUC [A21G C37U U43G A56G A64G A77G] | 0.37 |
| UAACAGGGGGCCACAGCAGAGGCGUUCACGUCGCAGCCCCUGUCAGAUUCUGGUGAGUCUGCGAGUUCUGCUGUAUAUUUC [A21G A57G A65G C79U] | 0.14 |
| UAACAGGGGGCCACAGCAGAGGCGUUCACGUCGCAGCCCCUGUCAGGUUCUGGUGUAUCUGCGAAUUCUGCUGUAUAUCUC [A21G A47G A56U] | 0.48 |
| UAACAGGGGGCCACAGCAGAGGCGUUCACGUCGCAGCCCCUGUCAGGUUCUGGUGAAUCUGCGGAUCCUGCUGUAUAUCUC [A21G A47G A64G U67C] | 0.05 |

| Variant | self-cleavage |
| --- | --- |
| UAACAGGGGGCCACAGCAGAGGCGUUCACGUCGCAGUCCCUGUCAGAUUCUGGUGAAUCUGCGAAUACUGCUGUAUAUCUC [A21G C37U U67A] | 0.46 |
| UAACAGGGGGCCACAGCAGAGGCGUUCACGUCGGAGCCCCUAACAGAUUCUGGUGAAUCUGAGAAUUCUGCAGUAUAUCUC [A21G C34G G42A U43A C62A U72A] | 0.05 |
| UAACAGGGGGCCACAGCAGAGGCGUUCACGUCGCUGCCCCUGUCAGAUUCUGGUGAAUCUGCGAAUUCAGCUGUAUAUCUC [A21G A35U U69A] | 0.1 |
| UAACAGGGGGCCACAGCAGAGGCGUUCACGUCGCCGCCCCUGUCAGAUUCUGGCGAAUCUGCGAAUUCCGCUGUAUAUCUC [A21G A35C U54C U69C] | 0.06 |
| UAACAGGGGGCCACAGCAGAGGCGUUCACGUCGCAGCCCCUGUCUGAUUCUGGUGAACCUGCGAAUUCUGCUGAAUAUCUC [A21G A45U U58C U74A] | 0.12 |
| UAACAGGGGGCCACAGCAGAGGCGUUCUCGUCGCAGCCCCUGUCAGUUUCCGGUGAAUCUGCGUAUUCUGCUGUAAAUCUC [A21G A28U A47U U51C A64U U76A] | 0.08 |
| UAACAGGGGGCCACAGCAGAGGUGUUCACGUCGCAGCCCCUGUCAGAUUCUGGUGAAUCUGCGAAUUUUGCUGUAUACCUC [A21G C23U C68U U78C] | 0.38 |
| UAACAGGGGGCCACAGCAGAGGCGUUCACGUCGCUGCCCCUGUCAGAUUCUGGUGAACCUGCGAAUUCUGCUGUAUAUCUC [A21G A35U U58C] | 0.39 |
| UAACAGGGGGCCACAGCAGAGGCGUUCACGUCGCAGCCCCUGUCAGAUUCUGGUGACUCUUCGAAUUCAGCUGUAUAUCUC [A21G A57C G61U U69A] | 0.17 |
| UAACAGGGGGCCACAGCAGAGGCGUUCACGUCGCAGCCCCUGUCUGAUUCUGGUGAAUCCGCGAACUCUGCUGUAUAUCUC [A21G A45U U60C U66C] | 0.44 |
| UAACAGGGGGCCACAGCAGAGGCGUUCACGUCGCAGCCCCUGUCAGGCUCUGGUGAAUCUGCGAAUACUGCUGUAUAUCCC [A21G A47G U48C U67A U80C] | 0.33 |
| UAACAGGGGGCCACAGCAGAGGCGUUCAUGUCACAGCCCCUGUCAGAUUCUGGUGAAUCUGCUAAUUCUGCGGUAUAUCUC [A21G C29U G33A G63U U72G] | 0.08 |
| UAACAGGGGGCCACAGCAGAGGCGUUCACGUCGCGGCCCCUGACAGAUUCUGGUGAAUCUGCGAAUUCUGCUGUUUAUCCC [A21G A35G U43A A75U U80C] | 1.2 |
| UAACAGGGGGCCACAGCAGAGGCGUUCACGUCGCUGCCCCUGUCAGAUUCUGGUGAAUCUGCGAAUUCUGCCGUAUAUCUC [A21G A35U U72C] | 0.14 |
| UAACAGGGGGCCACAGCAGAGGCGUUCACGUCGCAGCCCCUGUCUGAUUCAGGUGAAUCUGCGAAUUCUGCUGUUUAUCUC [A21G A45U U51A A75U] | 0.09 |
| UAACAGGGGGCCACAGCAGAGGCGUUCGCGUCGCAGCCCCUGCCAGAUUCUGGUGAAUCUGCGAAUUCAGCCGUAUAUCUC [A21G A28G U43C U69A U72C] | 0.12 |
| UAACAGGGGGCCACAGCAGAGGCGUUCACGUCGCAGCCCCUGUCGGAUUCUGGUGAAUCUGCGAAUUCUGCUGUGUAUCUC [A21G A45G A75G] | 0.44 |
